# Source: publication PMC7385176, “Engineering a disulfide-gated switch in streptavidin enables reversible binding without sacrificing binding affinity” (Scientific Reports, 2020)
# Target: the molecule itself
# Assay: SDS-PAGE of heated samples (folded tetramers resolved from denatured monomers); 2% SDS, with 5 mM biotin, heated at 95 °C for up to 60 min, 12% SDS-PAGE, Coomassie; fraction still tetrameric relative to time zero
protein,measurement,value
"streptavidin mutein M88 (N49C/A86C), oxidized, as used in the thermostability assay (natural protein, disulfide bond between Cys-49 and Cys-86 (previously oxidized), streptavidin, Streptomyces avidinii; numbers count on: the mature protein; also called oxidized M88; source: both purified) not shown",stoichiometry N,4
